Source: PubChem BioAssay AID360 (National Center for Advancing Translational Sciences (NCATS), 2006)
Screen size: about 48,000 compounds; about 550 (1.1%) were called active. About 4% were inconclusive and are not listed. Cut-off read from the data, not from the text of the source: active = potency below about 15 µM; inconclusive = mostly about 16 µM to 33 µM; inactive = weaker than that. The list shows a part of the results.

Biological target: Lysosomal acid glucosylceramidase (Homo sapiens) (UniProt P04062)
UniProt P04062, sequence (P04062 whole entry, looked up): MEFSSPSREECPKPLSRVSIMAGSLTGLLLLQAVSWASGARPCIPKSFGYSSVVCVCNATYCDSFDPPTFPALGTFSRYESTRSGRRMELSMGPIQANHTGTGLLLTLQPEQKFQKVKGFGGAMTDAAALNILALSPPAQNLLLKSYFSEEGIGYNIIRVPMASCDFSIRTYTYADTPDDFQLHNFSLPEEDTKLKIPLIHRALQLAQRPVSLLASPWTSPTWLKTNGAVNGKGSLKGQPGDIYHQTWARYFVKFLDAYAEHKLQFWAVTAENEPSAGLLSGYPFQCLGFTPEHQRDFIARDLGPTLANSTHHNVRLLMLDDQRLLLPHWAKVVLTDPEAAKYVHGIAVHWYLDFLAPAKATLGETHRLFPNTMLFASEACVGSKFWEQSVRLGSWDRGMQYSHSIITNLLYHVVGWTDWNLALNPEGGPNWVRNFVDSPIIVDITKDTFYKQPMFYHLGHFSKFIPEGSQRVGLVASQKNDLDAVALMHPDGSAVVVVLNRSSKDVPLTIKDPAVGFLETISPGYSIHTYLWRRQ
Experiment: Glucocerebrosidase;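 note: the screen sought inhibitors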
Conditions: purified enzyme, resorufin glucoside fluorescence (screen aimed at inhibitors), 20 min; series mostly up to 77 µM
How it was run: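 Compounds titrated against 0.2 nM normal enzyme, 30 uM resorufin beta-D-glucopyranoside substrate, citrate/phosphate buffer with taurocholate and tween-20, pH 5.9. Reaction ran 20 min at room temperature; fluorescence (Ex 548/Em 600) gave AC50.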
Potency is the fitted concentration of half-maximal effect.

Potency, inactive:
CC(C)N(Cc1nc(-c2ccccc2)no1)C(=O)c1ccc(Br)o1 > 76.9 µM, CCCS(=O)(=O)N1CCN(c2ccccc2F)CC1 > 76.9 µM, O=C(Nc1ccc2c(c1)OCO2)c1ccccc1SCC(=O)N1CCCC1 > 76.9 µM, O=C(OCc1cc(-c2ccccc2)no1)c1ccc2ccccc2n1 > 76.9 µM, Cc1ccc(O)c(C(=O)c2cnn(C(=O)Cc3csc(C)n3)c2)c1 > 76.9 µM, CCOc1ccccc1C1C(C#N)=C(N)SC(N)=C1C#N > 76.9 µM, O=C(CN1CCOCC1)Nc1c2c(nc3ccccc13)N(Cc1ccccc1)CC2 > 76.9 µM, CCn1c(SCC(=O)Nc2cc(C)on2)nnc1-c1cccs1 > 76.9 µM, CCOC1(C(F)(F)F)NC(=O)N(Cc2ccc(OC)cc2)C1=O (centres undefined) > 76.9 µM, CN=C1SC(CC(=O)Nc2sc3c(c2C#N)CCCC3)C(=O)N1C (centres undefined) > 76.9 µM, CSc1nc(-c2ccccc2)nc(SC)c1C(C)=O > 76.9 µM, CCc1nnc(NS(=O)(=O)c2ccc(N3C(=O)C4CC=C(Cl)CC4C3=O)cc2)s1 (centres undefined) > 76.9 µM, O=C(OCCN1CCCCC1)c1cc2ccccc2o1 > 76.9 µM, CCCCn1c(SCC(=O)N2CCCCC2)nc2cc(S(N)(=O)=O)ccc21 > 76.9 µM, CCCCC(=O)Nc1ccc(NC(=O)C2CC2)cn1 > 76.9 µM, O=C1c2ccc(-c3nc4ccccc4o3)cc2C(=O)N1Cc1cccnc1 > 76.9 µM, Cc1ccnc2nc(C(=O)OCCOc3ccccc3)nn12 > 76.9 µM, Cc1nnc(NC(=O)NCN2C(=O)C3C4C=CC(C4)C3C2=O)s1 (centres undefined) > 76.9 µM, N#Cc1cc2ccccc2nc1SCC(=O)Nc1ccccc1N1CCOCC1 > 76.9 µM, O=S(=O)(c1ccc(S(=O)(=O)N2CCCC2)cc1)N1CCCCCC1 > 76.9 µM, CCCC(=O)Nc1c2c(nn1-c1ccc(C)cc1C)CSC2 > 76.9 µM, CCCn1c(-c2ccc(F)cc2)n[nH]c1=S > 76.9 µM, COc1ccc(-n2[nH]c(C)cc2=O)cc1 > 76.9 µM, NC(=O)c1ccsc1NC(=O)CSc1ccccc1F > 76.9 µM, C(=C\c1ccccc1)/CSc1nnc(-c2cccnc2)n1Cc1ccco1 > 76.9 µM, CCOc1ccc(C(CC(=O)O)NC(=O)COc2ccccc2)cc1 (centres undefined) > 76.9 µM, CCOC(=O)C1=C(C)C(c2ccc(OC)cc2OC)NC(=O)N1 (centres undefined) > 76.9 µM, COCCn1nnnc1CN(CCc1ccccc1)Cc1cc2ccc(C)cc2[nH]c1=O > 76.9 µM, CC(C)(C)NC(=O)c1ccc(NC(=O)C2COc3ccccc3O2)cc1 (centres undefined) > 76.9 µM, O=c1cc(CSc2ccccn2)c2ccccc2[nH]1 > 76.9 µM, CCn1nnnc1SCC(=O)N1CCOCC1 > 76.9 µM, O=C(CN1C(=O)C2(OCCCO2)c2ccccc21)NCCc1ccccc1 > 76.9 µM, O=C(NCC(=O)N1CCC(N2CCCCC2)CC1)C1CCCCC1 > 76.9 µM, CCOC(=O)Cn1c(=O)n(CC(=O)OCC)c2ccccc21 > 76.9 µM, Cc1cc(C)cc(-n2nnc(C(=O)NCc3ccccc3Cl)c2N)c1 > 76.9 µM, CCC(C)NC(=O)CNC(=O)Cn1c(C)cc2ccccc2c1=O (centres undefined) > 76.9 µM, CCCCN(CCCC)S(=O)(=O)c1ccc(OC)c2ncccc12 > 76.9 µM, CCC(C)Oc1cccc(OCCCCN2C(=O)NC(C)(C)C2=O)c1 (centres undefined) > 76.9 µM, O=C(NCc1ccco1)C(c1ccco1)N(CCc1ccccc1)C(=O)Cn1nnc2ccccc21 (centres undefined) > 76.9 µM, CCOc1cc2[nH]c(=S)n(CCCN3CCOCC3)c(=O)c2cc1OCC > 76.9 µM, CN=CC1=C(O)c2ccccc2C1=O > 76.9 µM, COc1ccccc1NC(=O)Cc1nn(C)c(=O)c2ccccc12 > 76.9 µM, CC(=O)c1cc(-c2ccccc2)n(CCC(=O)NCc2cccs2)c1C > 76.9 µM, CC(C)c1nnc(NC(=O)CCS(=O)(=O)c2nc(-c3cccs3)cc(C(F)(F)F)n2)s1 > 76.9 µM, CSCCC(NC(=O)c1ccc(C)o1)C(=O)O (centres undefined) > 76.9 µM, CC1=C(C(=O)N2CCOCC2)C(c2ccsc2)C2=C(CCCC2=O)N1 (centres undefined) > 76.9 µM, CN(C)S(=O)(=O)N1CCC(c2ccc(F)cc2)C(COc2ccc3c(c2)OCO3)C1 (centres undefined) > 76.9 µM, COc1ccc(OCC(=O)Nc2ccccc2OC(F)F)cc1 > 76.9 µM, COCCOC(=O)/C=C1/NC(=O)CS1 > 76.9 µM, CC1(C)Cc2ccccc2-c2nnc(-c3ccccn3)n21 > 76.9 µM, O=C(c1ccco1)N1CCN(c2ncnc3c2[nH]c2ccc(Br)cc23)CC1 > 76.9 µM, CCOc1ccccc1NC1=NCC(=O)N1Cc1ccc(F)cc1 > 76.9 µM, CCOC(=O)C(NC(C)=O)C(OC(C)=O)c1cccc(N(CCO)CCO)c1 (centres undefined) > 76.9 µM, CCOC(=O)c1sc(C)c2c(=O)n(CCCN3CCOCC3)cnc12 > 76.9 µM, CCOC(=O)c1c(C)[nH]c(C)c1C(=O)CSc1nc(N)cc(N)n1 > 76.9 µM, CCOc1ccc(NC(=O)C(C)Sc2nnnn2C)cc1 (centres undefined) > 76.9 µM, CSCC[C@H](NC(=O)OC(C)(C)C)c1nnc(SCC(=O)N(C)C)o1 > 76.9 µM, Cc1ccc(-c2cc(C(=O)O)n[nH]2)o1 > 76.9 µM, Cn1c(=O)[nH]c(=O)c2c1nc(CN1CCN(c3ccc(F)cc3)CC1)n2CCCc1ccccc1 > 76.9 µM
